{"source": "PubChem BioAssay AID686979", "about": "(National Center for Advancing Translational Sciences (NCATS), 2013)", "note": "Out of some 420,000 compounds screened, about 50,000 (12%) were called active. Inconclusive means that the source gave no clear call. Such entries were picked first, then a sample of the others. The call rests on the fitted dose curve; in most records, active means well fitted inhibition curve with a large enough effect; inconclusive means small, poorly fitted or top-dose-only effect; inactive means flat fitted curve, though single readings scatter. Potencies of inconclusive entries are left out as doubtful fits.", "data": [{"experiment": "qHTS for Inhibitors of human tyrosyl-DNA phosphodiesterase 1 (TDP1): qHTS in cells in presence of CPT; further: nearly all actives have a fitted effect of over 55% in size; further: potency means the concentration at half of the fitted maximal effect; tags describe the fitted curve by direction and shape; on activity change, negative = growth inhibition: on the % scale 0 is the no-effect control and ±100 the full control effect", "conditions": "chicken DT40 Tdp1-/-;hTDP1 cells + 20 nM CPT, ATP luminescence, 48 h; activity change, negative = growth inhibition: at 46.2 µM (top of the series) unless noted", "in_short": "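Chicken DT40 Tdp1-/- cells complemented with human TDP1, 400 cells/well, exposed to compounds plus 20 nM camptothecin for at least 48 h at 37 C; viability read as ATP content by CellTiter-Glo luminescence.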", "values": [{"molecule": "COc1ccc2c(c1)CCC(C)N2S(=O)(=O)c1ccc(C2CNC(=O)C2)cc1", "note": "(stereo not given)", "Potency": "inconclusive [inhibitor, single point]"}, {"molecule": "O=C(Nc1c(C(=O)Nc2ccc(F)cc2)oc2ccccc12)c1ccccc1F", "Potency": "inconclusive [inhibitor, single point]"}, {"molecule": "CCN(CC)CCn1c(NCc2nc3ccccc3n2Cc2ccccc2)nc2ccccc21", "Potency": "inconclusive [inhibitor, single point]"}, {"molecule": "COC(=O)c1nc2n(n1)C(c1cc(OC)ccc1OC)C(C(=O)OC1CCCCC1)=C(C)N2", "note": "(stereo not given)", "activity change, negative = growth inhibition": "inactive: -27.4%"}, {"molecule": "COc1cccc(OCCOc2cccc(/C=N/n3cnnc3)c2)c1", "Potency": "inconclusive [inhibitor, partial curve]"}, {"molecule": "CC1(C)CCC[C@]2(C)[C@H]3Cc4cc(O)ccc4O[C@]3(C)CC[C@@H]12", "Potency": "active: 18.4 µM"}, {"molecule": "CCCC(C(=O)NC(C)(C)C)N(CC1CCCO1)C(=O)c1snc(C(N)=O)c1N", "note": "(stereo not given)", "activity change, negative = growth inhibition": "inactive: 17.9%"}, {"molecule": "Nc1[nH]n(-c2ccccc2)c(=O)c1N=Nc1ccccc1", "activity change, negative = growth inhibition": "inconclusive: -33.8% [inhibitor]"}, {"molecule": "CN(Cc1ccccc1)C(=O)COC(=O)c1ccccc1Nc1ccccc1", "activity change, negative = growth inhibition": "inactive: -0.608%"}, {"molecule": "CC1=C(C(=O)OCC2CCCCC2)C(c2ccccc2F)CC(=O)N1", "note": "(stereo not given)", "Potency": "inconclusive [inhibitor, single point]"}, {"molecule": "COc1ccccc1CNC(=O)C1CCCN(c2nnc(-n3c(C)ccc3C)s2)C1", "note": "(stereo not given)", "Potency": "active: 16.4 µM"}, {"molecule": "Cc1ccc(-n2c(SCC(=O)Nc3cccc(S(=O)(=O)NC4=NCCCCC4)c3)nc3ccccc3c2=O)cc1C", "Potency": "inconclusive [inhibitor, partial curve]"}, {"molecule": "COc1ccccc1NC(=O)c1ccc(CS(=O)(=O)c2ccc(C)cc2)cc1", "Potency": "inconclusive [inhibitor, single point]"}, {"molecule": "OC(c1ccccc1)c1nc(/C=C/c2ccc(C(F)(F)F)cc2)cs1", "note": "(stereo not given)", "activity change, negative = growth inhibition": "inactive: -21.7%"}, {"molecule": "Cc1ccc2nc(N/N=C/c3ccccc3C#N)nc(-c3ccccc3)c2c1", "Potency": "inconclusive [inhibitor, single point]"}, {"molecule": "COc1ccc(C(=O)N/N=C/c2ccc(OC)c(COc3ccccc3)c2)cc1", "Potency": "inconclusive [inhibitor, single point]"}, {"molecule": "Cc1ccc(-n2nnnc2C(=Cc2ccc(N(C)C)cc2)c2nnnn2-c2ccc(C)cc2)cc1", "Potency": "inconclusive [inhibitor, partial curve, poor fit]"}, {"molecule": "CCSc1nc(O)cc(=O)[nH]1", "activity change, negative = growth inhibition": "inactive: 3.99%"}, {"molecule": "Cc1cc(O)cc2c1O[C@](C)(CCC[C@H](C)CCC[C@H](C)CCCC(C)C)CC2", "activity change, negative = growth inhibition": "inactive: -9.45%"}, {"molecule": "OC(COc1ccccc1)Cn1c2ccccc2c2ccccc21", "note": "(stereo not given)", "Potency": "inconclusive [inhibitor, single point]"}, {"molecule": "Cc1nc(NCCc2ccc(O)cc2)c2nnn(Cc3ccccc3)c2n1", "Potency": "inconclusive [inhibitor, single point]"}, {"molecule": "CC1(C)CC(=O)C2=C(C1)OC(N)=C(C#N)C2C1CC=CCC1", "note": "(stereo not given)", "Potency": "inconclusive [inhibitor, partial curve]"}, {"molecule": "O=C(CSc1nc2ncc(Br)cc2[nH]1)Nc1ccc2c(c1)OCO2", "Potency": "inconclusive [inhibitor, single point]"}, {"molecule": "CC(C)CCNC(=O)C(=O)Nc1ccc2c(c1)N(S(=O)(=O)c1cccs1)CCC2", "Potency": "active: 5.17 µM"}, {"molecule": "Cc1nc2nc(SCC(=O)NCCc3ccccc3)nn2c(C)c1Cc1c(F)cccc1Cl", "Potency": "inconclusive [inhibitor, single point]"}, {"molecule": "COc1cccc(/C=N/Nc2ncnc3c2[nH]c2ccc(C)cc23)c1OC", "Potency": "active: 2.06 µM"}, {"molecule": "CO[C@H]1CC[C@@]2(C)[C@@H](CC[C@@H]3[C@@H]2CC[C@@]2(C)[C@H]3C[C@H](C(=O)O)O[C@]23CCCO3)C1", "activity change, negative = growth inhibition": "inactive: 5.05%"}, {"molecule": "COc1ccc(C(=O)N(Cc2ccc(C(C)C)cc2)C2CCS(=O)(=O)C2)cc1", "note": "(stereo not given)", "Potency": "inconclusive [inhibitor, partial curve, poor fit]"}, {"molecule": "CCOC(=O)c1cc(-c2ccc(C)cc2)n(CCC(=O)NCCN(C)C)c1C", "Potency": "inconclusive [inhibitor, single point]"}, {"molecule": "CC(=O)Nc1cc(-c2ccccc2)cn2c(-c3ccc(F)cc3)cnc12", "Potency": "inconclusive [inhibitor, single point]"}, {"molecule": "CN(Cc1ccccc1)C(=O)c1[nH]cnc1C(=O)Nc1cccc(Cl)c1", "Potency": "inconclusive [inhibitor, single point]"}, {"molecule": "COc1cccc(C2=CC(=O)CC(C)(C)C2)c1", "Potency": "inconclusive [inhibitor, single point]"}, {"molecule": "O=C(NCc1cccs1)C1CCCN1C(=O)Nc1ccccc1[N+](=O)[O-]", "note": "(stereo not given)", "activity change, negative = growth inhibition": "inactive: 5.79%"}, {"molecule": "COc1ccccc1N1CCN(C(=O)c2cccc(C(=O)N3CCN(c4ccccc4OC)CC3)c2)CC1", "activity change, negative = growth inhibition": "inconclusive: -36.8% [inhibitor]"}, {"molecule": "O=C1NC(=O)C2(COC(c3cccc([N+](=O)[O-])c3)OC2)S1", "note": "(stereo not given)", "activity change, negative = growth inhibition": "inactive: -1.37%"}, {"molecule": "Nc1c(C(=O)c2ccc(Br)s2)oc2ccccc12", "activity change, negative = growth inhibition": "inactive: 0.0755%"}, {"molecule": "CSCCC(NS(=O)(=O)c1ccc(Cl)cc1)C(=O)OCc1c(Cl)cccc1Cl", "note": "(stereo not given)", "Potency": "inconclusive [inhibitor, single point]"}, {"molecule": "Cc1cccc(C(C(=O)NC2CCCCC2)N(C(=O)c2csnn2)C2CC2)c1", "note": "(stereo not given)", "activity change, negative = growth inhibition": "inactive: -7.19%"}, {"molecule": "COc1cc(-c2n[nH]c(=S)n2/N=C/c2cccn2C)cc(OC)c1OC", "Potency": "inconclusive [inhibitor, single point]"}, {"molecule": "CC(C)c1ccc(S(=O)(=O)/N=C2/C=C(Sc3ncn[nH]3)C(=O)c3ccccc32)cc1", "Potency": "active: 2.59 µM"}, {"molecule": "CCOc1ccc(CCNC(=O)Cn2c(-c3nonc3N)nc3ccccc32)cc1OCC", "Potency": "active: 10 µM"}, {"molecule": "Cc1ccc(C(C)C)c(OCC(=O)N2CCC(c3nc4ccccc4o3)CC2)c1", "Potency": "inconclusive [inhibitor, single point]"}, {"molecule": "COc1cc(OC)cc(C(=O)Nc2ccc(Nc3ccccc3)cc2)c1", "Potency": "active: 20.6 µM"}, {"molecule": "COc1c(C(O)CC(C)C)ccc2c1C(=O)OCc1cc(C)cc(O)c1O2", "note": "(stereo not given)", "Potency": "inconclusive [inhibitor, single point]"}, {"molecule": "Cc1ccccc1OCC(=O)N(Cc1nc(-c2ccccc2)no1)C(C)C", "Potency": "inconclusive [inhibitor, single point]"}, {"molecule": "CCn1c(SCCOc2ccccc2F)nc2ccccc21", "Potency": "inconclusive [inhibitor, single point]"}, {"molecule": "FC(F)(F)Oc1ccc(NC(=S)Nc2ccccc2N2CCOCC2)cc1", "Potency": "inconclusive [inhibitor, single point]"}, {"molecule": "NC(=O)CNC(=O)[C@@H]1CC2(CC(c3ccc(Cl)cc3)=NO2)CN1C(=O)c1ccccc1", "note": "(stereo not given in full)", "activity change, negative = growth inhibition": "inactive: -1.9%"}, {"molecule": "Cc1ccc2oc(C(=O)N3CCN(CC(=O)NC(C)C)CC3)c(C)c2c1", "activity change, negative = growth inhibition": "inactive: -5.09%"}, {"molecule": "CSc1nc2ccccc2n1CC(=O)Nc1cc(C(F)(F)F)ccc1N1CCOCC1", "Potency": "active: 20.6 µM"}, {"molecule": "Cc1ccc(Oc2nnc(-c3ccc(C)cc3)c3ccccc23)cc1", "Potency": "active: 20.6 µM"}, {"molecule": "COC(=O)[C@H](C(C)C)N(Cc1ccccc1)S(=O)(=O)CCNC1CCCC1", "Potency": "active: 25.9 µM"}, {"molecule": "CCOC(=O)COc1ccc(S(=O)(=O)NCc2ccncc2)cc1", "Potency": "inconclusive [inhibitor, partial curve]"}, {"molecule": "Cc1cccnc1Nc1nc(-c2ccc(O)c(O)c2)cs1", "Potency": "active: 3.26 µM"}, {"molecule": "c1ccc(Cn2nnc3c(N4CCCC4)ncnc32)cc1", "activity change, negative = growth inhibition": "inconclusive: -31.3% [inhibitor]"}, {"molecule": "O=C(Nc1ccccc1)C1=C[C@@H](c2ccccc2)C[C@@H](OCc2ccc(CO)cc2)O1", "Potency": "inconclusive [inhibitor, single point]"}, {"molecule": "COc1ccc(C(=O)c2c(N)sc3c2CCN(C)C3)cc1", "Potency": "inconclusive [inhibitor, single point]"}, {"molecule": "CCOC(=O)c1c(NC(C)=O)sc2c(OCC(O)CNC(C)(C)C)c(Br)ccc12", "note": "(stereo not given)", "Potency": "inconclusive [inhibitor, single point]"}, {"molecule": "Cc1nn(-c2ccccc2)c(C)c1/C=N/n1c(-c2ccc(Cl)cc2)n[nH]c1=S", "Potency": "inconclusive [inhibitor, single point]"}, {"molecule": "COCCNC(=O)c1cn(C)c2ccc(S(=O)(=O)N3CCCCC3)cc2c1=O", "Potency": "inconclusive [inhibitor, partial curve]"}, {"molecule": "COc1ccc(CC(=O)NC(=S)Nc2ccc(S(=O)(=O)NC(C)(C)C)cc2)cc1", "Potency": "inconclusive [inhibitor, single point]"}, {"molecule": "O=C(c1cc2cc(F)ccc2[nH]1)N1CCc2ccccc21", "Potency": "inconclusive [inhibitor, single point]"}, {"molecule": "Cc1cc(C(=O)COC(=O)c2ccc[nH]c2=O)c(C)n1-c1ccc(F)cc1", "activity change, negative = growth inhibition": "inactive: -4.37%"}, {"molecule": "COCCn1c(=O)[nH]c2cc(C(=O)NCCN3CCN(c4cccc(Cl)c4)CC3)ccc2c1=O", "Potency": "active: 14.6 µM"}, {"molecule": "COc1ccc(-c2oc3ccccc3c(=O)c2O)cc1OC", "activity change, negative = growth inhibition": "inactive: -28%"}, {"molecule": "O=C(c1ccc(Cl)cc1)N(Cc1cccs1)C1CCS(=O)(=O)C1", "note": "(stereo not given)", "Potency": "inconclusive [inhibitor, single point]"}, {"molecule": "Cc1ccc(S(=O)(=O)Cn2nnnc2CN(Cc2ccco2)CC2CCCO2)cc1", "note": "(stereo not given)", "activity change, negative = growth inhibition": "inactive: -13%"}, {"molecule": "Cc1ccc2nc3c(nc2c1)-c1ccccc1C3=O", "activity change, negative = growth inhibition": "inconclusive: -33.4% [inhibitor]"}, {"molecule": "O=C(COc1ccc(Cl)cc1Cl)NCC(=O)N/N=C/c1c[nH]c2ccccc12", "activity change, negative = growth inhibition": "inconclusive: -33.4% [inhibitor]"}, {"molecule": "Cc1nn2c(=O)cc(COC(=O)c3cccc(NC(=O)c4cccs4)c3)nc2s1", "Potency": "active: 11.6 µM"}]}]}
